Source: a collection of fitness landscapes (doi:10.1016/j.celrep.2020.107928)
The full ranking holds about 81,000 sequences; the median of “one-hybrid fitness for binding parS DNA” is about -0.17, and the highest 2% start at about 0.51. This is one part of the list.

B1: Caulobacter ParB omega fusion; a variant is named by its letters at X, in order, B8GW30 (parent)
chain: MESVVVGEPGMSEGRRGLGRGLSALLGEVDAAPAQAPGEQLGGSREAPIEILQRNPDQPRRTFREEDLEDLSNSIREKGVLQPILVRPSPDTAGEYQIVAGERAWRAAQRAGLKTVPIMVRELDDLAVLEIGIIENVQRADLNVLEEALSYKVLMEKFERTQENIAQTIGKSXSHVANXMRLLXLPDEVQSYLVSGELTAXHARAIAAAADPVALAKQIIEGGLSVRETEALARKAPNLSAGKSKGGRPPRVKDTDTQALESDLSSVLGLDVSIDHRGSTGTLTITYATLEQLDDLCNRLTRGI

Variants of: B1
Assay: one-hybrid fitness for binding parS DNA (scaled: cognate 1, non-cognate 0); higher = stronger binding
Conditions: with parS DNA site
In short: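 In E. coli USO, a HIS3 reporter with its site placed 19 bp from the promoter was used to select Caulobacter ParB variants randomised at four specificity codons. Growth lasted 48 hours at 37°C on histidine-free M9 containing 0.1 mM IPTG and 5 mM 3-AT. Fitness was taken as the log change in variant-to-wild-type read ratio from Illumina sequencing of pre- and post-selection plasmids, rescaled between the non-cognate and cognate sites.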

one-hybrid fitness for binding parS DNA, 0.402:
RCKM

one-hybrid fitness for binding parS DNA, 0.864:
RQKS

one-hybrid fitness for binding parS DNA, ≤ 0.2:
LGQY
QKIM
VYLN
SCFV
TMWG
PSTS
QGIA
SCCE
KLDV
TYRR
NPYF
EPPV
RWRE
RDVV
WPQS
LKQH
AVKM
IRLE
QRPT
WTAN
PGRG
YLLL
GDQQ
NHNN
LLQR
QLKQ
GGPT
YMRL
NNGT
QCRC
TPMR
NGDT
TICP
VDKS
DPVC
QIAP
KHGG
RGCW
YELP
QHDV
RRMF
PQMA
KNQL
FVSH
MLAR
SHRN
GYLC
RHCL
QARQ
GVAC
MEAC
ETAA
WRWL
SLQN
LMIF
HILS
LAWC
PKNS
QLWV
GYES
ITWT
NWTF
RLNK
FYKT
NQRG
AVPT
TVET
MLSG
CYSR
TEKY
MIDR
DAWS
MING
GPSA
QVET
LANY
HPVQ
SWTS
NEPY
ISPR
PVSY
RCLV
